B1: GBRAP_14_3765 (protein)
chain: MEEVEKIIDETGKEIAALLAELVPEKAEEFKEAIDEVRKETIARIKETGDALAAAEEGERRLAERIAEITADLPEERRAEALAVVRVLFGQAILEIDEAL
B2: GBRAP_122_2961 (protein)
chain: MEEEKLLKEALKKLEEAKDKPISEIVLLTMEALAKAKREEDKEAIIEKAAEIISEKVPNVSKEEVKKILKEALRLMEEEGISVEEAAAYADVEILDLEME
B3: GBRAP_160_4672 (protein)
chain: MEEVEKLKEEIKEILEEALEFMRGESTEERIAVARSMTGDIILLLEESPVVSDEAIDEADELGDELVAWIAAHPDITDEELEAKLEEVLEKIKKILEEKT
B4: GBRAP_160_4566 (protein)
chain: MERVEEFLEELREAIEETLEATKDDSVEEIKIAVVGTIGSFAMEAAEDENFSDEMVDAILEAGDRAAKTLEELKDASYEEIKKAVMEIVEELEEEVLKIA
B5: GBRAP_125_3080 (protein)
chain: HMEQDLADLATLAKALGLSDDEVEELVRLAAASSLKQTLIALMLAEGWEEVAEALEKLTEEQARKVLREVKAYIEAHPDATPEEVKELMLELAKKAIAEA
B6: GBRAP_11_2916 (protein)
chain: KLEKLKEIAKKAEELVKALKELLKEGVDNEELRKKALELAKELLELVKENLDEEDAELAEELVEALEKSKKEPEKAEEYVKEALAIAEVLLGQALLEIEE
B7: GBRAP_95_7074 (protein)
chain: DDDRLLLDSLVEVLDTYIDLGNKEKAEEAAKEAAETAKELGYPTFPESLSLEGRLLIVEEAAKTYDKETVLKLTEAILKSVKDEKDKKKILEKREELLKK
B8: GBRAP_83_6958 (protein)
chain: MITVVGTSKPESIRAAVDAAIDLHKEEGIEVELELYVTKESAETALEALKRMIDAGVEAEITLIGKESDKETLEKLAEEIKKRAKEAGVNVKVEVIVEPE
B9: GBRAP_39_5648 (protein)
chain: EEEEERELLFSYFEALAEKYRIEKGISDEELIEEGLKLLEELKKKYPEIKEKLEELIELAKEGNEEIKLAATGIALLAEEGVSVEELKKHIEDFIEYVKS
B10: GBRAP_139_3747 (protein)
chain: MSPEEVEREARALVARYAEDPEAAIAALARLLASLDEELRERAVRAIAEALLERPFDEAEAFLDALERRLREEEGDEEGAELVEAEANRTLAEIAVREEA
B11: GBRAP_160_4408 (protein)
chain: SEELEETAERILEAVEDELELLLELGEVDPEAAAGLLEGTILLEAFEDDSLTEEQEEEIEELAEELAERLERLLKEEGRMTEEIVEELLEEAEEGLEEII
B12: GBRAP_160_4397 (protein)
chain: SEKFEKLKKEITDIFEETKEMIKGQSPEERKVIVRVSFGEILLAVFENEEVTDEQEEEFGKLLDKYEKEALKAVEKGLEALLEVLDKAKEELLKLIEKNE
B13: GBRAP_160_4388 (protein)
chain: SMGFEELAKEVDEIIDEAIELIEGESPEERRVIARVALGEILMAAFSNDDLTDEQEEAIAEVLDKGEKEIEKAIEEGLEAVKAALEKTREELLKLIKEHE
B14: GBRAP_35_5512 (protein)
chain: SSDDTEVDMLVATIEDLVLAIPDLDVETASSIANQLIDDARKLAEDLKDDPEGLKRIAEALEALLKAIKKHYGDDPLAKETAKKVEEALKHVKELYEKAL
B15: GBRAP_122_2962 (protein)
chain: MKEEELLKKALEELEAAADKPLHEIVLKTMEALAEAESEEAKEKIIRKASEIISKKVPNVKKEEVEEILREALRLMEEEGISVEEAAAYADVEILDLEME
B16: GBRAP_150_3894 (protein)
chain: DLEELLIIADSNEDILNGMIESGKYNLTILETLLKVTEKEIETAPPEIAELLKKAAEALKKAIKLLKEGAPKEEIEKELKKAAEAYKKAAELLEKKIKEE
B17: GBRAP_166_4889 (protein)
chain: STEEAIREIERLAEEAIANIAALTPEELLAVFIEMVEIVERAGATPELRAALAEAAARIVAAAVAAGRDWDEVESLALAAVGDDEELLDAVEATLAALRA
B18: GBRAP_160_4194 (protein)
chain: SEEIEKLKKEIKEIAEEAIEMIEGQSYEERKVIVKGALGQIVLLVDESESVSDEAEEKIAEIADETIAYLDSNPDLTEEEIKELIKETTEKIIKILEEED
B19: GBRAP_125_3075 (protein)
chain: PTPEELEDLALIARALGYSEDDVAEIVAIAAASSLRQTLVAIMLAEGAEEAADAVERLTEAEARAVLREVAAALRANPGLSKEEVVALMLEVARRALAAA
B20: GBRAP_78_6593 (protein)
chain: EIEEAIDELLKATNEAMTLLAKNPTEFAQDILGELIDESTEIWEAYEEYNDLEKIKEEAEKLAKTLKKALEKKDKFSPETVAAIEKALKEAEKLIKLLDK
B21: GBRAP_160_4700 (protein)
chain: SATAEKLKAFAQEEFDEAKELVVGESREQRAIIVEGRGGEIIMELISNPDVSDELVDEVDKIIDDLVATILANPDLTDEELKALIDEALKKIKEAIDKHL
B22: GBRAP_128_3332 (protein)
chain: MNEERLERAKELAEELKKADVEEARKLTREIVRLMGEASEEEREEIAKIFEEALKKLSAEKLEAVADVLREERPKLDPLTQEYVNDLEVEALNLAEEKEE
B23: GBRAP_160_4164 (protein)
chain: EEEAEKLIEEIDEITKEAIELIEGESIEQRAVIVDGEFGEIIMTLFESPVVSDEVVDLADKLRDELVEWLKENPDASLEEIKAKIEEVRDKIIEAVKKDA
B24: GBRAP_78_6601 (protein)
chain: EVEELLDRALELIGEAARLAQQLDPETQNEVLDHLVDAASDLVESEEPEGRLEHLKEALEHLEKALELVKASDSPAAPELAKVLEEAIELVKEAIKLLEE
B25: GBRAP_160_4452 (protein)
chain: SEELEKLKKEIDELRKRAKELIEGQTHEERVTVVAVEFGELILELSSEESVSDELEDEVAKIVDELVETLKANPDLTEEEVKKLIDEAAEKIKKALEKYL
B26: GBRAP_184_5345 (protein)
chain: MIASVTITAEEWKADPEAQLARVREALADPSVDTLVVILEDLSFEDALEAIERIGKLAKEAGFKNLIVHVDSELTEEEIDKLIEAADKYGIKLVVAIRDE
B27: GBRAP_137_3670 (protein)
chain: MIRVEVELENGLAFARITVEGSPEELERAAEIAEDIAGEIPDLAVSVKLTEEGRLEIDVFGTPESVEAFLRRLAERLDRTVEVTTRDEETGEVRRRVIRP
B28: GBRAP_160_4847 (protein)
chain: EEKKKRIREEFNKAREFVLSLIPEVTVEQLAAAFRAEIGTTALELLEEGVINEEAEDVALEGADEAEAALLAAADATPEELKALITEKVEEIIKKVEEKL
B29: GBRAP_160_4309 (protein)
chain: SEELEKLKEEIKEIAEEAIEMIEGQSAEQQKTIVKVTLGEIILLAFENPAISDELEDEIIKIADEAEKKLDANPDLTEEEIKELLKETVKKILELIEKSE

The full ranking holds about 4,500 sequences; the median of “median log2 fold change of GCK-ALFA target abundance (FLAG IP / Myc IP barcode read proportion)” is about 0.078, and the lowest 2% start at about -0.6. The list shows a part of the results.

In this assay the target is GABARAP, O95166. Nature of the assay: median log2 fold change of GCK-ALFA target abundance (FLAG IP / Myc IP barcode read proportion) (log2 ratio); each designed protein is fused to an ALFA-tag nanobody in HEK293 cells to bring the named protein to FLAG-tagged glucokinase (GCK); Myc marks an untargeted standard; higher = target protein stabilised (more abundant). As to conditions: target protein: 3xFLAG-MCP-GCK-ALFA reporter; HEK293 landing pad (RPLP). In short, it runs like this: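 Binders fused to an ALFA nanobody were recombined as a library into HEK293 landing-pad cells, which were induced with 2 μg mL^−1 doxycycline and then transfected to express a FLAG-tagged target and a Myc-tagged standard. After 48 h, circular RNA barcodes recovered by anti-FLAG and anti-Myc immunoprecipitation of lysates were reverse transcribed, amplified and sequenced. Each binder's target abundance is the median log2 ratio of FLAG to Myc barcode read proportions, from barcodes present at ≥10^−7 in both replicates, binders carrying ≥3 barcodes per replicate, a 10^−6 pseudocount and pooled replicates.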
GABARAP, O95166, sequence (O95166 whole entry, the tested form may be a part): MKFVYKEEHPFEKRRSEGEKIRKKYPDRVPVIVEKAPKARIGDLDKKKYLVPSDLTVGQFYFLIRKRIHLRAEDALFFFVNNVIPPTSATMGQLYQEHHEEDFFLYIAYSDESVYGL
On to B1, for which the “median log2 fold change” value was 0.0613.

B2: the “median log2 fold change” value is 0.216.

For the molecule B3, the “median log2 fold change” value is -0.275.

Take B4: the “median log2 fold change” value is -0.0372.

As to B5, the “median log2 fold change” value came out at 0.0607.

Turning to B6, the “median log2 fold change” value worked out at 0.0903.

For the molecule B7, the “median log2 fold change” value came out at 0.0208.

B8: the “median log2 fold change” value was found to be 0.149.

With B9, the “median log2 fold change” value stood at 0.212.

For the molecule B10, the “median log2 fold change” value was found to be 0.0584.

For the molecule B11, the “median log2 fold change” value is -0.872.

Take B12: the “median log2 fold change” value is -0.482.

For B13, the “median log2 fold change” value was -0.185.

In the case of B14, the “median log2 fold change” value turned out to be 0.195.

B15: the “median log2 fold change” value was determined as 0.323.

On to B16, for which the “median log2 fold change” value was determined as 0.103.

As for B17, the “median log2 fold change” value was 0.108.

B18: the “median log2 fold change” value was -0.0355.

B19: the “median log2 fold change” value came out at 0.0955.

For the molecule B20, the “median log2 fold change” value was 0.216.

Take B21: the “median log2 fold change” value was 0.132.

Consider B22, for which the “median log2 fold change” value is 0.405.

As for B23, the “median log2 fold change” value was determined as 0.0193.

For B24, the “median log2 fold change” value was 0.207.

Consider B25, for which the “median log2 fold change” value turned out to be 0.206.

With B26, the “median log2 fold change” value worked out at 0.27.

As for B27, the “median log2 fold change” value stood at 0.0906.

On to B28, for which the “median log2 fold change” value was determined as 0.256.

Regarding B29, the “median log2 fold change” value was -0.155.

The values are drawn from the supplement of paper PMC12632987.
